From ChEMBL document CHEMBL4888484, “Replenishing the malaria drug discovery pipeline: Screening and hit evaluation of the MMV Hit Generation Library 1 (HGL1) against asexual blood stage Plasmodium falciparum ,using a nano luciferase reporter read-out” (2022)
“And” between values parts separate entries of the source, which are not always exact repeats. Equal values may be shown once. Out of some 150,000 compounds screened, about 540 (0.36%) showed an effect of 50% or more. This is one part of the list.

System: Plasmodium falciparum
Test: Primary screen in NF54 nanoGlo assay, in single point, at 2uM, 72h; a lower Z score goes with more inhibition
Type: functional, Erythrocyte
Settings: timepoint 72 hour

Question: With `O=C(NC[C@@]1(c2ccccc2)CCCO1)c1cc2n(n1)CCCC2=O` as the compound, how does the “% Inhibition” value read?
Answer: The value was -13%.

Question: What about the Z score of the same compound?
Answer: Its Z score is 2.5.

Question: How did the “% Inhibition” value turn out when `C[C@H]1CCN(c2ncc(Cl)cc2Cl)CCS1(=O)=O` was run?
Answer: Its value is 33%.

Question: And the Z score?
Answer: Its Z score is -4.73.

Question: `CCCc1n[nH]cc1C(=O)N1CC[C@@]2(CCCN(CC3CC3)C2=O)C1` was tested. Which “% Inhibition” value did it give?
Answer: Its value is 1%.

Question: What about the Z score of the same compound?
Answer: Its Z score is -0.23.

Question: Which results are given for `CC[C@](C)(N)c1nc(C(C)(C)C)cc(=O)[nH]1`?
Answer: % Inhibition: -6%; Z score: 1.19

Question: Which results are given for `Cc1nccn1-c1cc(N2CCCC2)nc2ccnn12`?
Answer: % Inhibition: -18%; Z score: 2.07

Question: How did the “% Inhibition” value turn out when `Cc1cc(N(C)CCOc2ccccc2)n2ncnc2n1` was run?
Answer: Its value is 8%.

Question: And the Z score?
Answer: Its Z score is -1.14.

Question: `Cc1nn(CCO)c(C)c1CN1CCC(=O)N(CCC2CCCCC2)CC1` was tested. Which “% Inhibition” value did it give?
Answer: Its value is 6%.

Question: And the Z score?
Answer: Its Z score is -1.08.

Question: For `O=C(NCCn1ccc(-c2ccsc2)n1)c1ccccc1Cl`, which “% Inhibition” value is on record?
Answer: Its value is 24%.

Question: And the Z score?
Answer: The Z score was -3.21.

Question: `CN[C@H]1CCCN(C(=O)c2cn(C)nc2-c2ccc(F)cc2F)C1` was tested. Which “% Inhibition” value did it give?
Answer: The value was -7%.

Question: And the Z score?
Answer: The Z score was 0.95.

Question: With `CC(C)C[C@@H](CO)NC(=O)CC1(CN2Cc3ccccc3C2=O)CCCCC1` as the compound, how does the “% Inhibition” value read?
Answer: The value was -19%.

Question: And the Z score?
Answer: The Z score was 2.39.

Question: For `O=C(Nc1c(C(=O)N2CCC(N3CCCCC3)CC2)oc2ccccc12)C1CCCCC1`, which “% Inhibition” value is on record?
Answer: The value was -5%.

Question: And the Z score?
Answer: The Z score was 0.55.

Question: For `CC(C)c1nn2ccccc2c1[C@@H](O)C(C)C`, which “% Inhibition” value is on record?
Answer: The value was 0%.

Question: What about the Z score of the same compound?
Answer: Its Z score is 0.

Question: With `NC(=O)Cc1ccc(NS(=O)(=O)c2cnc3ccc(F)cc3c2)cc1` as the compound, how does the “% Inhibition” value read?
Answer: The value was -5%.

Question: What about the Z score of the same compound?
Answer: The Z score was 0.49.

Question: Which results are given for `CCS(=O)(=O)N1CCN(Cc2nnc3n2CCCCC3)CC1`?
Answer: % Inhibition: -6%; Z score: 1.06

Question: Which results are given for `C[C@@H](c1ccc(F)c(F)c1)N(C)Cc1nc(-c2cccs2)no1`?
Answer: % Inhibition: -6%; Z score: 0.85

Question: How did the “% Inhibition” value turn out when `CC(C)c1ccc(C(=O)NC2(CN3CCOCC3)CCCC2)c(=O)n1C` was run?
Answer: Its value is -4%.

Question: And the Z score?
Answer: Its Z score is 0.84.

Question: How did the “% Inhibition” value (2 µM) turn out when `Cc1cc[n+](CC2OCc3ccccc3CO2)cc1` was run?
Answer: The value was 0% and -12%.

Question: What does the source list for `CS(=O)(=O)c1ccc(CNC(=O)N2CC(=O)N(C3CC3)C2)cc1Cl`?
Answer: % Inhibition: 14%; Z score: -1.84

Question: How did the “% Inhibition” value turn out when `COCCN1C(=O)CC(CC(=O)N2CCC(c3ccccc3F)C2)(c2ccccc2OC)C1=O` (configuration not stated) was run?
Answer: The value was 4%.

Question: What about the Z score of the same compound?
Answer: Its Z score is -0.59.

Question: Which results are given for `O=c1c(N2CCCCCC2)nccn1C1CC1`?
Answer: % Inhibition: -7%; Z score: 1.14

Question: Which results are given for `O=C(N[C@@H]1CC[C@H]2CCOc3ccccc3C(=O)N3CCN(Cc4ccncc4)C[C@H]3C(=O)NC[C@H]1O2)C1CCOCC1`?
Answer: % Inhibition: 14%; Z score: -1.58

Question: With `CO[C@H]1CCCOC12CCN(C(=O)c1ccc3c(c1)OCO3)CC2` as the compound, how does the “% Inhibition” value read?
Answer: The value was -6%.

Question: What about the Z score of the same compound?
Answer: Its Z score is 0.51.

Question: `CCS(=O)(=O)NCCc1ncc(C)n1C(C)C` was tested. Which “% Inhibition” value did it give?
Answer: The value was 6%.

Question: And the Z score?
Answer: Its Z score is -1.18.

Question: How did the “% Inhibition” value turn out when `Cc1c(C(=O)NCc2nccs2)cnn1-c1ncc2c(n1)-c1ccccc1CCC2` was run?
Answer: The value was 20%.

Question: And the Z score?
Answer: The Z score was -2.54.
